Laboratory results published in ChEMBL document CHEMBL3351582, “A simple, general approach of allosteric coagulation enzyme inhibition through monosulfated hydrophobic scaffolds” (Bioorg Med Chem Lett, 2014).

Experiments:
[1] = system: CCOC(=O)c1c(C)[nH]c2ccc(OCc3c(C(=O)OCC)c4cc(OS(=O)(=O)O)ccc4n3C(=O)OC(C)(C)C)cc12; settings: Homo sapiens; 20 uM
[2] = system: CCOC(=O)c1c(C)[nH]c2ccc(OCc3c(C(=O)OCC)c4cc(OS(=O)(=O)O)ccc4n3C(=O)OC(C)(C)C)cc12; settings: Homo sapiens; 40 uM
[3] = system: CCOC(=O)c1c(C)[nH]c2ccc(OCc3c(C(=O)OCC)c4cc(OS(=O)(=O)O)ccc4n3C(=O)OC(C)(C)C)cc12; settings: Homo sapiens; 60 uM
[4] = system: CCOC(=O)c1c(C)[nH]c2ccc(OCc3c(C(=O)OCC)c4cc(OS(=O)(=O)O)ccc4n3C(=O)OC(C)(C)C)cc12; settings: Homo sapiens; 20 uM; remark: listed apart in the source
[5] = system: CCOC(=O)c1c(C)[nH]c2ccc(OCc3c(C(=O)OCC)c4cc(OS(=O)(=O)O)ccc4n3C(=O)OC(C)(C)C)cc12; settings: Homo sapiens; 40 uM; remark: listed apart in the source
[6] = system: CCOC(=O)c1c(C)[nH]c2ccc(OCc3c(C(=O)OCC)c4cc(OS(=O)(=O)O)ccc4n3C(=O)OC(C)(C)C)cc12; settings: Homo sapiens; 60 uM; remark: listed apart in the source

Coagulation factor XI (Homo sapiens) (letters omitted)
Km [1]: 295 µM
Km [2]: 328 µM
Km [3]: 1270 µM
Vmax [4]: 32.3 mAU/min/µM
Vmax [5]: 30.4 mAU/min/µM
Vmax [6]: 23.8 mAU/min/µM
